Measured values reported in ChEMBL document CHEMBL1201862, “PubChem BioAssay data set” (2004).
Where “and” joins values, the source holds several entries; their conditions need not be identical. Identical values can stand only once. Counter-ions that a name gives are not always drawn.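 Interpolation was linear, between the two tested concentrations surrounding the appropriate level; five concentrations were tested over 48 hours in 96-well plates. GI50 marks 50% less growth.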 Calls of active or inactive are those of the source. No stated cut-off is given here; in the data, active = GI50 up to about 1.1 µM and inactive = higher.

test system: NCI-H322M; assay: growth of human tumour cells (NCI), 48 h

| Compound | GI50 |
| --- | --- |
| O=C(NNC(=O)c1ccccc1S)c1ccccc1S [BIS(THIOSALICYL)HYDRAZIDE] | inactive: 13.3 µM |
| Cc1c[nH]c2c(O)cc3c(c12)[C@H](CCl)CN3C(=O)c1cc2cc(NC(=O)Nc3ccc4[nH]c(C(=O)N5C[C@@H](CCl)c6c5cc(O)c5[nH]cc(C)c65)cc4c3)ccc2[nH]1 [BIZELESIN] | active: 0.00104 µM |
| C[C@H]1CCC/C=C/[C@@H]2C[C@H](O)C[C@H]2[C@H](O)/C=C/C(=O)O1 [BREFELDIN A] | active: 36.4 nM and active: 46.2 nM |
| COC(=O)[C@@]12OC[C@]34[C@H]([C@@H](O)[C@@H]1O)[C@@]1(C)CC(=O)C(O)=C(C)[C@@H]1C[C@H]3OC(=O)[C@H](OC(=O)/C=C(\C)C(C)C)[C@@H]24 [BRUCEANTIN] | active: 0.0224 µM |
| C=C1CC/C=C(\C)C(=O)C[C@@H]2[C@@H]1CC2(C)C [BUDDLEDIN C] | inactive: 21.2 µM |
| O=C(/C=C/c1ccc(O)c(O)c1)c1ccc(O)cc1O [BUTEIN] | inactive: 12.2 µM |
| C[C@@H]([C@H]1CC[C@@]2(C)[C@@H]3CC[C@@H]4C(=CC3=CC[C@]12C)CC[C@H](N(C)C)C4(C)C)N(C)C [BUXAMINE A] | inactive: > 100 µM |
| O=C(O)/C=C/c1ccc(O)c(O)c1 [CAFFEIC ACID] | inactive: > 100 µM |
| C=C(C)[C@@H]1CC[C@@]2(C)[C@H]1[C@H]1CCC3[C@@]4(C)CC[C@H](O)C(C)(C)[C@@H]4CC[C@@]3(C)[C@]1(C)C[C@@H]2O (some centres undefined) [CALENDULADIOL] | inactive: 37.8 µM |
| CC[C@@]1(O)C(=O)OCc2c1cc1n(c2=O)Cc2cc3ccccc3nc2-1 [CAMPTOTHECIN] | active: 0.107 µM |
| O=C1/C(=c2\c3ccccc3n3c(=O)c4ccccc4nc23)Nc2ccccc21 [CANDIDINE] | inactive: > 100 µM |
| C[C@@]12C(=O)OC(=O)[C@]1(C)[C@H]1CC[C@@H]2O1 [CANTHARIDIN] | inactive: 2.02 µM |
| CNC(=O)ON(C(C)=O)C(=O)NC [CARACEMIDE] | inactive: 110 µM |
| NC(=O)Oc1ccccc1 [CARBAMIC ACID PHENYL ESTER] | inactive: > 100 µM |
| COC(=O)Nc1nc2ccccc2[nH]1 [CARBENDAZIM] | inactive: 29.7 µM |
| NC(=O)c1nnn(Cc2cc(Cl)c(C(=O)c3ccc(Cl)cc3)c(Cl)c2)c1N [CARBOXYAMIDOTRIAZOLE] | inactive: 24.1 µM |
| C=C(C)C1CC=C(C)C(=O)C1 (centres undefined) [CARVONE] | inactive: > 100 µM |

| Compound | GI50 |
| --- | --- |
| CCN(CC)c1ccc2cc(C(=O)Nc3ccc4[nH]c(C(=O)N5C[C@@H](CCl)c6c5cc(OC(=O)Nc5ccccc5)c5[nH]cc(C)c65)cc4c3)oc2c1 [CARZELESIN] | inactive: 444 µM |
| NS(=O)(=O)c1ccc(C(=O)O)cc1 [CARZENIDE] | inactive: > 100 µM |
| O[C@H]1[C@H](O)[C@@H](O)CN2CC[C@H](O)[C@H]12 [CASTANOSPERMINE] | inactive: > 100 µM |
| COC(=O)/C1=C/c2c([nH]c3ccccc23)/C(C(=O)OC)=C\c2c1[nH]c1ccccc21 [CAULERPIN] | inactive: 26.2 µM |
| COc1c(O)c2c(c3cc(C(=O)N4CCc5c4c(O)c(OC)c4[nH]c(C(=O)N6CC7CC78C6=CC(=O)c6[nH]cc(C)c68)cc54)[nH]c13)CCN2C(N)=O (centres undefined) [CC-1065] | active: 0.00561 µM |
| C[C@@H]1CC[C@H]2C(C)(C)[C@H]3C[C@@]12CC[C@@]3(C)O [CEDROL] | inactive: > 100 µM |
| CC1=C(O)C(=O)C=C2C1=CC=C1[C@@]2(C)CC[C@@]2(C)[C@@H]3C[C@](C)(C(=O)O)CC[C@]3(C)CC[C@]12C [CELASTROL] | active: 0.528 µM |
| Cc1ccc(-c2cc(C(F)(F)F)nn2-c2ccc(S(N)(=O)=O)cc2)cc1 [CELECOXIB] | inactive: 18.2 µM |
| CC1OC1C(=O)C1(O)C(C)C(O)C23OC2(C(O)c2c(O)cccc2C3=O)C1O (centres undefined) [CERVICARCIN] | active: 0.0667 µM |
| O=C(OCCN1CCCCCC1)C(c1ccsc1)C1CCCCC1 (centres undefined) [CETIEDIL CITRATE] | inactive: 20.3 µM |
| O=C(N[C@H](CO)[C@H](O)c1ccc([N+](=O)[O-])cc1)C(Cl)Cl [CHLORAMPHENICOL] | inactive: > 100 µM |
| CC(C)OC(=O)Nc1cccc(Cl)c1 [CHLORPROPHAM] | inactive: > 100 µM |
| Nc1ccc(S(=O)(=O)Nc2cnc3c(Cl)cccc3n2)cc1 [CHLORSULFAQUINOXALINE] | inactive: 387 µM |
| COc1cc(Cn2c3ccccc3c3cc(C)c4c(c32)C=CC(C)(CCC=C(C)C)O4)cc2c1[nH]c1ccccc12 (centres undefined) [CHRESTFOLINE C] | inactive: > 100 µM |
| O=c1cc(-c2ccccc2)oc2cc(O)cc(O)c12 [CHRYSIN] | inactive: 25.8 µM |
| Cc1cc(C2CCCCC2)n(O)c(=O)c1 [CICLOPIROX OLAMINE] | inactive: 9.12 µM |
| CN/C(=N\CCSCc1nc[nH]c1C)NC#N [CIMETIDINE] | inactive: > 100 µM |
